# From the supplement of paper PMC3334620
# The full ranking holds about 33,000 sequences; the median of “E-score (-0.5 to 0.5)” is about -0.036, and the highest 2% start at about 0.37. The list shows a part of the results.
# Biological target: T1, Yer064c (UniProt P40041)
# T1 sequence: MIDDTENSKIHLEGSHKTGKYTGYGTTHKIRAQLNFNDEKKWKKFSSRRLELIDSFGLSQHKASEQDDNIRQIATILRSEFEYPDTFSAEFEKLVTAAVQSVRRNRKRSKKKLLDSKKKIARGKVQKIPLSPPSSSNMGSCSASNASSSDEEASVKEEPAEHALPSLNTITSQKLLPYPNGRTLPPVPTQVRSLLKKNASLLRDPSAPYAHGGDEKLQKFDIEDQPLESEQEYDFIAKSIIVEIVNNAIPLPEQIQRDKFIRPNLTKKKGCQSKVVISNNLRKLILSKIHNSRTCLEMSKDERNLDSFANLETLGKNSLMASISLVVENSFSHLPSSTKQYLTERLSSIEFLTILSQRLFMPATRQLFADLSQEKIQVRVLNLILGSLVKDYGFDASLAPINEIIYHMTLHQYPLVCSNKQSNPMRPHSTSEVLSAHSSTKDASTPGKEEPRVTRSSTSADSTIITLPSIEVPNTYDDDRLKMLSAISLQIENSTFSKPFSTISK
# Assay: PBM E-score (8-mer binding enrichment) (E-score (-0.5 to 0.5)); higher = stronger / more preferred TF binding; most listed sequences are background and not binding sites
# Conditions: protein concentration: 200 nM; construct: GST-full length
# Summary of the method: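 Masliner-normalised scans of fluorescent anti-GST signal were the basis for scoring. That signal came from GST-tagged yeast transcription factors applied at about 100-200 nM to double-stranded universal all-10-mer Agilent arrays on fresh or once-stripped slides. Each ungapped eight-base word, pooled with its reverse complement, received an E-score from the Universal PBM Analysis Suite.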
row,Sequence,PBM E-score
1,ATCAGGAG,0.164
2,AGCGCCAC,-0.314
3,ACTTAACC,0.121
4,GAGCTCCC,-0.00947
5,CGGCGACC,-0.318
6,CTTATTCC,-0.121
7,AGCTTCAC,-0.265
8,TACCTGGA,0.0309
9,ATACAGAC,0.0857
10,ATAGAGAC,0.0997
11,GTAGATCA,0.0904
12,GAGATAAC,-0.0649
13,CGAGTAGC,-0.00738
14,GTAAGTAA,0.0006
15,AAGCACGT,0.034
16,CGGTCATA,-0.0954
17,GCTACTAC,-0.0666
18,ATTTGGAC,-0.0647
19,TAGCAAGA,-0.0617
20,GCAATCAA,0.134
21,ATTACCCC,0.0298
22,CCGCGACA,-0.146
23,CTAAATAA,0.128
24,TACAATGA,0.243
25,GGTGAGGA,-0.0969

row,Sequence,PBM E-score
1,AATCGCCC,0.186
2,AGGATCAT,0.148
3,GCGGGGTA,-0.216
4,AGCCCGGG,-0.144
5,GTCCTGAA,-0.07
6,ATGCGGCG,-0.174
7,AATCCAGA,-0.019
8,CAGAAGAA,-0.0728
9,CTGGACAC,-0.209
10,AACATTCT,0.111
11,AACTCGTG,0.11
12,AAACTGTT,-0.0194
13,AGCAACTG,-0.155
14,TCGGACGA,0.0731
15,ACTAAAAT,0.201
16,CTATTCCA,0.00202
17,ATAGGGAA,-0.248
18,GGCACTCA,-0.0401
19,CAGCATGC,-0.0385
20,ATGGCTCG,0.237
21,ATCCTTCC,-0.106
22,CTCACTCA,0.256
23,TGCGCGCA,-0.00849
24,CGACAAGA,0.0513
25,CACCGCTG,-0.191

row,Sequence,PBM E-score
1,AGAACTAC,-0.103
2,GAAGCCAA,0.035
3,ATTAATGC,-0.0148
4,CGCAAAGA,0.0839
5,CACAAGAG,0.0589
6,ATGGATCG,-0.068
7,GCTGCTCA,-0.125
8,ACCCGCTC,-0.32
9,GAATGCAC,-0.047
10,TAAGATTA,0.298
11,CTCGACGC,-0.0731
12,CCATCTAC,-0.0261
13,CCAGATGG,-0.0617
14,CGGAAATC,0.125
15,ACTATAGC,0.12
16,CTGTACAC,-0.228
17,ACGTTCAC,-0.237
18,CAATTACA,0.0413
19,ACCACCGC,-0.21
20,CCGGACAG,-0.136
21,CATAGAGA,0.165
22,CCCGGAAG,-0.242
23,CCCGCCTC,-0.0906
24,AATGGCAA,-0.00615
25,AGACGCTA,-0.0528

row,Sequence,PBM E-score
1,ATAGCGGC,-0.169
2,ATATTAGC,0.112
3,GGTAGGAC,-0.126
4,AGGTCACG,-0.143
5,AATGACAC,-0.0672
6,CCTAGCAC,-0.405
7,GATTGCAC,0.218
8,CGAATTGA,0.136
9,ACATATAG,0.035
10,AAGGAACT,-0.21
11,TGTGAAAA,-0.079
12,CTCCACCC,-0.099
13,GATAGATA,-0.0933
14,GATCAGGA,-0.0664
15,AAGATGGT,-0.157
16,ACAGGACT,0.272
17,ACGTAAAG,0.0517
18,CCTCTGCG,-0.125
19,AGTATTGA,0.145
20,AAACGACA,-0.098
21,ACGCGTCG,-0.0105
22,CGATTTTC,0.0242
23,CGCGTGTA,0.147
24,TCTGTACA,0.101
25,CCTAGTCC,0.0749

row,Sequence,PBM E-score
1,AGATCTGA,0.169
2,CTCAGCCC,-0.0848
3,AAGGCGGG,-0.156
4,GTCGCTCA,0.171
5,TCCATCCA,-0.0667
6,ACGATGTG,0.152
7,TCCTTCAA,0.102
8,CATTCTCC,-0.102
9,AGCTACGA,-0.0242
10,GACTAGTA,0.391
11,ACTATTTC,0.108
12,ACCCCCCG,-0.231
13,CGAAGGAC,0.079
14,ACAAGCTC,-0.275
15,CACTGTCG,-0.136
16,GGCCAGCC,-0.191
17,ATCTCCAT,-0.156
18,AATTTGAG,0.158
19,GGACTGAC,0.226
20,AATCAGAA,0.3
21,TTTGAAAA,0.127
22,ATTTATTA,-0.0394
23,TGGACAAA,-0.146
24,CCACTGAC,0.0888
25,GATATCAC,-0.114

row,Sequence,PBM E-score
1,CGTTGCAC,-0.129
2,CCGTTTCG,-0.216
3,AATTCGAC,-0.067
4,ACAGTTCG,-0.101
5,CGCACCGA,-0.00675
6,AGAGCGTA,-0.0942
7,CTTGTGCA,-0.112
8,ACCCTACC,-0.0414
9,TACGATGA,0.212
10,CTCTGGGC,-0.0927
11,GCCTTAAC,-0.104
12,CCTGTAGC,-0.0723
13,AGGGGTAA,-0.0851
14,AACCGGGG,-0.0285
15,AACACCGG,-0.00387
16,CGAGGCGC,-0.2
17,GACGCGCA,-0.212
18,AATGACGC,-0.0588
19,CGACGCGC,-0.0907
20,TATCATAA,0.0309
21,CGAACCGC,0.0436
22,ATCGAGAG,-0.0358
23,AGTGAGCA,0.0822
24,GCGCACAC,-0.195
25,CGCAACGC,-0.182

row,Sequence,PBM E-score
1,ACAGTTTA,0.00332
2,GGGGATAC,-0.249
3,GAGCACCC,-0.339
4,CAAGTCAC,0.36
5,CAGATTTC,-0.0533
6,CGGATTAC,0.0966
7,CCTAGAGC,-0.238
8,CACGCCTA,-0.0827
9,GTTTCACA,-0.0585
10,CGTTGGAG,-0.00447
11,GGCTTTCA,-0.0627
12,GCCGCCCA,-0.277
13,GACTGCCA,0.245
14,ACGTGCCC,-0.211
15,AATGAAGG,-0.185
16,AGTCAAAG,0.406
17,ACGCACAA,-0.117
18,CCTCGATA,0.0141
19,GCTTCCTA,-0.141
20,AACAAACG,-0.206
21,AGTCTGGA,0.167
22,GCGGTCCC,-0.234
